For the assay, the target named is Histone 4 (Saccharomyces cerevisiae) (Saccharomyces cerevisiae, UniProt P02309). In words: time-resolved tryptophan fluorescence.

B1: Cse4 W7L (single tryptophan mutant, reports the C-terminus through W178) (natural protein)
chain: not shown
B1: the binding result was “binds”.

B2: Cse4 W178L (single tryptophan mutant, reports the N-terminus through W7) (natural protein)
chain: not shown
Regarding B2, the binding result is recorded as “binds”.
